Reference: the supplement of paper PMC9151546
Many values rest on one well or one pass, so single values are uncertain.

What was measured:
[1] = test system: CHO-K1; test: relative survival (nuclei to bead ratio vs DMSO control) (% of vehicle control); higher = more surviving cells
Method: (§1)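 Flow-cytometric in vitro micronucleus assay (Litron MicroFlow) in CHO-K1 cells in 96-well plates, 19 concentrations (4.5-200 µM, n=1 per concentration). Without S9, cells were exposed for 24 h and sampled at 48 h. With Aroclor 1254-induced rat liver S9, cells were exposed for 3-4 h and sampled at 27-28 h. Read-outs are %MN and %hypodiploid nuclei relative to nucleated events, and relative survival as the nuclei-to-bead ratio versus the 1% DMSO vehicle control (x100).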

[2] = test system: CHO-K1; test: hypodiploid nuclei frequency (% of nucleated events); higher = more hypodiploid events (aneugenic)
Method: as §1

[3] = test system: CHO-K1; test: micronucleus frequency (% of nucleated events); higher = more micronuclei (genotoxic)
[4] = concentration: 4.5 (µM), S9 metabolic activation: with S9, exposure time: 3-4 hours
[5] = concentration: 4.5 (µM), S9 metabolic activation: without S9, exposure time: 24 hours
[6] = concentration: 5.63 (µM), S9 metabolic activation: with S9, exposure time: 3-4 hours
[7] = concentration: 5.63 (µM), S9 metabolic activation: without S9, exposure time: 24 hours
[8] = concentration: 7.04 (µM), S9 metabolic activation: with S9, exposure time: 3-4 hours
[9] = concentration: 7.04 (µM), S9 metabolic activation: without S9, exposure time: 24 hours
[10] = concentration: 8.8 (µM), S9 metabolic activation: with S9, exposure time: 3-4 hours
[11] = concentration: 8.8 (µM), S9 metabolic activation: without S9, exposure time: 24 hours
[12] = concentration: 11 (µM), S9 metabolic activation: with S9, exposure time: 3-4 hours
[13] = concentration: 11 (µM), S9 metabolic activation: without S9, exposure time: 24 hours
[14] = concentration: 13.7 (µM), S9 metabolic activation: with S9, exposure time: 3-4 hours
[15] = concentration: 13.7 (µM), S9 metabolic activation: without S9, exposure time: 24 hours
[16] = concentration: 17.2 (µM), S9 metabolic activation: with S9, exposure time: 3-4 hours
[17] = concentration: 17.2 (µM), S9 metabolic activation: without S9, exposure time: 24 hours
[18] = concentration: 21.5 (µM), S9 metabolic activation: with S9, exposure time: 3-4 hours
[19] = concentration: 21.5 (µM), S9 metabolic activation: without S9, exposure time: 24 hours
[20] = concentration: 26.8 (µM), S9 metabolic activation: with S9, exposure time: 3-4 hours
[21] = concentration: 26.8 (µM), S9 metabolic activation: without S9, exposure time: 24 hours
[22] = concentration: 33.6 (µM), S9 metabolic activation: with S9, exposure time: 3-4 hours
[23] = concentration: 33.6 (µM), S9 metabolic activation: without S9, exposure time: 24 hours
[24] = concentration: 41.9 (µM), S9 metabolic activation: with S9, exposure time: 3-4 hours
[25] = concentration: 41.9 (µM), S9 metabolic activation: without S9, exposure time: 24 hours
[26] = concentration: 52.4 (µM), S9 metabolic activation: with S9, exposure time: 3-4 hours
[27] = concentration: 52.4 (µM), S9 metabolic activation: without S9, exposure time: 24 hours
[28] = concentration: 65.5 (µM), S9 metabolic activation: with S9, exposure time: 3-4 hours
[29] = concentration: 65.5 (µM), S9 metabolic activation: without S9, exposure time: 24 hours
[30] = concentration: 81.9 (µM), S9 metabolic activation: with S9, exposure time: 3-4 hours
[31] = concentration: 81.9 (µM), S9 metabolic activation: without S9, exposure time: 24 hours
[32] = concentration: 102 (µM), S9 metabolic activation: with S9, exposure time: 3-4 hours
[33] = concentration: 102 (µM), S9 metabolic activation: without S9, exposure time: 24 hours
[34] = concentration: 128 (µM), S9 metabolic activation: with S9, exposure time: 3-4 hours
[35] = concentration: 128 (µM), S9 metabolic activation: without S9, exposure time: 24 hours
[36] = concentration: 160 (µM), S9 metabolic activation: with S9, exposure time: 3-4 hours
[37] = concentration: 160 (µM), S9 metabolic activation: without S9, exposure time: 24 hours
[38] = concentration: 200 (µM), S9 metabolic activation: without S9, exposure time: 24 hours
[39] = concentration: 200 (µM), S9 metabolic activation: with S9, exposure time: 3-4 hours
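Wherever hypodiploid nuclei frequency (% of nucleated events) is given: hypodiploid nuclei gated on a flow cytometer with 488 nm excitation after SYTOX Green staining, cultures at 37 °C, positive controls vinblastine without S9 and cyclophosphamide with S9.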
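Wherever micronucleus frequency (% of nucleated events) is given: cells lysed with nuclei stained by SYTOX Green, then micronucleus-gated events counted against nucleated events by flow cytometry with 488 nm excitation.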
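Wherever relative survival (nuclei to bead ratio vs DMSO control) is given: Lysed-cell nuclei stained with SYTOX Green and counted against counting beads by flow cytometry at 488 nm excitation, with vinblastine (no S9) and cyclophosphamide (plus S9) as positive controls.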

C#C[C@]1(O)CC[C@H]2[C@@H]3CCc4cc(O)ccc4[C@H]3CC[C@@]21C [17alpha-Ethinylestradiol]
relative survival [1, 4]: 126 | relative survival [1, 5]: 95.3 | relative survival [1, 6]: 131 | relative survival [1, 7]: 95.3 | relative survival [1, 8]: 119 | relative survival [1, 9]: 78.3 | relative survival [1, 10]: 121 | relative survival [1, 11]: 79.2 | relative survival [1, 12]: 112 | relative survival [1, 13]: 71.6 | relative survival [1, 14]: 128 | relative survival [1, 15]: 67.7 | relative survival [1, 16]: 121 | relative survival [1, 17]: 52.5 | relative survival [1, 18]: 116 | relative survival [1, 19]: 43.7 | relative survival [1, 20]: 136 | relative survival [1, 21]: 32.8 | relative survival [1, 22]: 124 | relative survival [1, 23]: 25.1 | relative survival [1, 24]: 133 | relative survival [1, 25]: 20.2 | relative survival [1, 26]: 106 | relative survival [1, 27]: 26.2 | relative survival [1, 28]: 100 | relative survival [1, 29]: 24.9 | relative survival [1, 30]: 79.1 | relative survival [1, 31]: 28.4 | relative survival [1, 32]: 53.4 | relative survival [1, 33]: 25.5 | relative survival [1, 34]: 24.9 | relative survival [1, 35]: 31.2 | relative survival [1, 36]: 3.57 | relative survival [1, 37]: 17.1 | relative survival [1, 38]: 0.05 | hypodiploid nuclei frequency [2, 4]: 0.36% | hypodiploid nuclei frequency [2, 5]: 2.98% | hypodiploid nuclei frequency [2, 6]: 0.34% | hypodiploid nuclei frequency [2, 7]: 5.72% | hypodiploid nuclei frequency [2, 8]: 0.34% | hypodiploid nuclei frequency [2, 9]: 9.86% | hypodiploid nuclei frequency [2, 10]: 0.36% | hypodiploid nuclei frequency [2, 11]: 15.8% | hypodiploid nuclei frequency [2, 12]: 0.24% | hypodiploid nuclei frequency [2, 13]: 20.5% | hypodiploid nuclei frequency [2, 14]: 0.28% | hypodiploid nuclei frequency [2, 15]: 29% | hypodiploid nuclei frequency [2, 16]: 0.2% | hypodiploid nuclei frequency [2, 17]: 32.5% | hypodiploid nuclei frequency [2, 18]: 0.38% | hypodiploid nuclei frequency [2, 19]: 28.4% | hypodiploid nuclei frequency [2, 20]: 0.48% | hypodiploid nuclei frequency [2, 22]: 0.48% | hypodiploid nuclei frequency [2, 24]: 0.54% | hypodiploid nuclei frequency [2, 26]: 0.42% | hypodiploid nuclei frequency [2, 28]: 0.2% | hypodiploid nuclei frequency [2, 30]: 0.32% | hypodiploid nuclei frequency [2, 32]: 0.37% | micronucleus frequency [3, 4]: 1.86% | micronucleus frequency [3, 5]: 3.3% | micronucleus frequency [3, 6]: 1.9% | micronucleus frequency [3, 7]: 5.44% | micronucleus frequency [3, 8]: 1.56% | micronucleus frequency [3, 9]: 7.18% | micronucleus frequency [3, 10]: 1.24% | micronucleus frequency [3, 11]: 9.58% | micronucleus frequency [3, 12]: 1.7% | micronucleus frequency [3, 13]: 13.4% | micronucleus frequency [3, 14]: 1.94% | micronucleus frequency [3, 15]: 18.2% | micronucleus frequency [3, 16]: 1.6% | micronucleus frequency [3, 17]: 25.6% | micronucleus frequency [3, 18]: 1.66% | micronucleus frequency [3, 19]: 29% | micronucleus frequency [3, 20]: 1.7% | micronucleus frequency [3, 22]: 1.74% | micronucleus frequency [3, 24]: 2.7% | micronucleus frequency [3, 26]: 1.42% | micronucleus frequency [3, 28]: 2.08% | micronucleus frequency [3, 30]: 3.32% | micronucleus frequency [3, 32]: 7.65%

c1ccc2n[nH]nc2c1 [1,2,3-Benzotriazole]
relative survival [1, 4]: 76.9 | relative survival [1, 5]: 85.4 | relative survival [1, 6]: 74.3 | relative survival [1, 7]: 93.1 | relative survival [1, 8]: 88.2 | relative survival [1, 9]: 112 | relative survival [1, 10]: 84.2 | relative survival [1, 11]: 104 | relative survival [1, 12]: 94.2 | relative survival [1, 13]: 99.2 | relative survival [1, 14]: 121 | relative survival [1, 15]: 104 | relative survival [1, 16]: 103 | relative survival [1, 17]: 107 | relative survival [1, 18]: 109 | relative survival [1, 19]: 94.6 | relative survival [1, 20]: 89.8 | relative survival [1, 21]: 98 | relative survival [1, 22]: 88.9 | relative survival [1, 23]: 102 | relative survival [1, 24]: 88.4 | relative survival [1, 25]: 84.1 | relative survival [1, 26]: 90.5 | relative survival [1, 27]: 91.5 | relative survival [1, 28]: 85 | relative survival [1, 29]: 104 | relative survival [1, 30]: 78.8 | relative survival [1, 31]: 104 | relative survival [1, 32]: 95.8 | relative survival [1, 33]: 85 | relative survival [1, 34]: 90 | relative survival [1, 35]: 102 | relative survival [1, 36]: 96.5 | relative survival [1, 37]: 77.8 | relative survival [1, 39]: 79.2 | relative survival [1, 38]: 74 | hypodiploid nuclei frequency [2, 4]: 0.16% | hypodiploid nuclei frequency [2, 5]: 0.42% | hypodiploid nuclei frequency [2, 6]: 0.42% | hypodiploid nuclei frequency [2, 7]: 0.5% | hypodiploid nuclei frequency [2, 8]: 0.22% | hypodiploid nuclei frequency [2, 9]: 0.72% | hypodiploid nuclei frequency [2, 10]: 0.18% | hypodiploid nuclei frequency [2, 11]: 0.8% | hypodiploid nuclei frequency [2, 12]: 0.16% | hypodiploid nuclei frequency [2, 13]: 0.56% | hypodiploid nuclei frequency [2, 14]: 0.18% | hypodiploid nuclei frequency [2, 15]: 0.62% | hypodiploid nuclei frequency [2, 16]: 0.32% | hypodiploid nuclei frequency [2, 17]: 0.54% | hypodiploid nuclei frequency [2, 18]: 0.06% | hypodiploid nuclei frequency [2, 19]: 0.68% | hypodiploid nuclei frequency [2, 20]: 0.22% | hypodiploid nuclei frequency [2, 21]: 0.66% | hypodiploid nuclei frequency [2, 22]: 0.14% | hypodiploid nuclei frequency [2, 23]: 0.36% | hypodiploid nuclei frequency [2, 24]: 0.26% | hypodiploid nuclei frequency [2, 25]: 0.64% | hypodiploid nuclei frequency [2, 26]: 0.22% | hypodiploid nuclei frequency [2, 27]: 0.62% | hypodiploid nuclei frequency [2, 28]: 0.12% | hypodiploid nuclei frequency [2, 29]: 0.82% | hypodiploid nuclei frequency [2, 30]: 0.16% | hypodiploid nuclei frequency [2, 31]: 0.76% | hypodiploid nuclei frequency [2, 32]: 0.22% | hypodiploid nuclei frequency [2, 33]: 1.38% | hypodiploid nuclei frequency [2, 34]: 0.12% | hypodiploid nuclei frequency [2, 35]: 0.94% | hypodiploid nuclei frequency [2, 36]: 0.16% | hypodiploid nuclei frequency [2, 37]: 1.24% | hypodiploid nuclei frequency [2, 39]: 0.18% | hypodiploid nuclei frequency [2, 38]: 2% | micronucleus frequency [3, 4]: 0.8% | micronucleus frequency [3, 5]: 1% | micronucleus frequency [3, 6]: 0.94% | micronucleus frequency [3, 7]: 1.3% | micronucleus frequency [3, 8]: 0.74% | micronucleus frequency [3, 9]: 1.12% | micronucleus frequency [3, 10]: 0.8% | micronucleus frequency [3, 11]: 1.22% | micronucleus frequency [3, 12]: 0.96% | micronucleus frequency [3, 13]: 1.04% | micronucleus frequency [3, 14]: 0.76% | micronucleus frequency [3, 15]: 1.22% | micronucleus frequency [3, 16]: 1.26% | micronucleus frequency [3, 17]: 1% | micronucleus frequency [3, 18]: 1.22% | micronucleus frequency [3, 19]: 1.12% | micronucleus frequency [3, 20]: 1.2% | micronucleus frequency [3, 21]: 1.18% | micronucleus frequency [3, 22]: 0.82% | micronucleus frequency [3, 23]: 0.94% | micronucleus frequency [3, 24]: 1.02% | micronucleus frequency [3, 25]: 1.18% | micronucleus frequency [3, 26]: 1.06% | micronucleus frequency [3, 27]: 1.32% | micronucleus frequency [3, 28]: 0.86% | micronucleus frequency [3, 29]: 1.38% | micronucleus frequency [3, 30]: 0.88% | micronucleus frequency [3, 31]: 1.3% | micronucleus frequency [3, 32]: 1.16% | micronucleus frequency [3, 33]: 1.34% | micronucleus frequency [3, 34]: 1.14% | micronucleus frequency [3, 35]: 1.26% | micronucleus frequency [3, 36]: 0.98% | micronucleus frequency [3, 37]: 1.46% | micronucleus frequency [3, 39]: 1.38% | micronucleus frequency [3, 38]: 2.3%
